Assay results reported in ChEMBL document CHEMBL1201862, “PubChem BioAssay data set” (2004).
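Dose response: 5 concentrations. Exposure: 48 h. Format: 96-well plates. Endpoint: linear interpolation; highest concentration if not reached. GI50 = concentration required for 50% inhibition of growth.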 Active and inactive are the calls of the source. Cut-off read from the data, not from the text of the source: active = GI50 up to about 1.1 µM and inactive = higher.

These molecules were tested on NCI-H322M (assay: growth of human tumour cells (NCI), 48 h).

SMILES	GI50
O=c1ccc2nc3ccc(O)cc3oc-2c1	inactive: 34.4 µM
Cc1ccc(C(=N)Nc2ccccc2)cc1	inactive: > 100 µM
c1ccc(CN2COc3c(ccc4c5c(ccc34)CN(Cc3ccccc3)CO5)C2)cc1	inactive: > 100 µM
CC(C)(C)n1nc(C2CC2)cc1NC(=O)Nc1ccc(Cl)cc1	inactive: > 100 µM
FC(F)(F)c1nc2nc(Cl)c(Cl)nc2n1CCCN1CCOCC1	inactive: 27 µM
O=C(O)/C=C/c1ccncc1	inactive: > 100 µM
CN(N=O)C(=O)N[C@H]1C(O)O[C@H](CO)[C@@H](O)[C@@H]1O (some centres not stated)	inactive: 604 µM
CCOC(=O)C(C(=O)Cc1ccccc1)c1ccccc1 (configuration not stated)	inactive: > 100 µM
CCN(CC)C1Oc2cc3c(cc2C(c2cc(OC)c(O)c(OC)c2)C1C)OCO3 (configuration not stated)	inactive: 24.8 µM
COc1ccc(/C=C/c2cnc3ccccc3n2)cc1OC	inactive: 77.6 µM
Clc1nc(Cl)c(CBr)c(Cl)n1	inactive: 16 µM
CN(C)CCCNC(=O)CCNC(=O)c1cc(NC(=O)c2cc(NC(=O)c3cc(NC(=O)c4nc(NC(=O)CCCNC(=O)c5cc(NC(=O)c6cc(NC(=O)c7cc(NC(=O)c8nccn8C)cn7C)cn6C)cn5C)cn4C)cn3C)cn2C)cn1C	inactive: > 100 µM
CN1C2CCC1CC(CC(=O)NC(c1ccc(F)cc1)c1ccc(F)cc1)C2 (configuration not stated)	inactive: > 100 µM
Cc1ccc(C2=Nc3cc(C)c(Cl)cc3S(=O)(=O)NN2)cc1	inactive: > 100 µM
O=C(O)c1ccc(P(=O)(O)c2ccc(C(=O)O)cc2Br)c(Br)c1	inactive: > 100 µM
CC1CCSC(N(C(=O)N(C)c2ccccc2)c2ccccc2)=N1 (configuration not stated)	inactive: > 100 µM
Cc1c(N)nc([C@H](CC(N)=O)NC[C@H](N)C(N)=O)nc1C(=O)N[C@H](C(=O)N[C@H](C)[C@@H](O)[C@H](C)C(=O)N[C@H](C(=O)NCCc1nc(-c2nc(C(=O)NCCC[S+](C)C)cs2)cs1)[C@@H](C)O)C(OC1OC(CO)C(O)C(O)C1OC1OC(CO)C(O)C(OC(N)=O)C1O)c1c[nH]cn1 (some centres not stated)	inactive: 16.6 µM
O=C1CC(C(=O)O)Cc2c(Br)ccc(O)c21 (configuration not stated)	inactive: > 100 µM
C[C@]12CCC(=O)[C@@H](CCC3=CC(=O)C=CC3=O)[C@@H]1CCC2=O	inactive: 25.6 µM
CCC(C)(O)c1cnc(CC(C)C)c(=O)n1O (configuration not stated)	inactive: 49.4 µM
CC(C)(C)OC(=O)NCC(=O)OCc1ccccc1	inactive: > 100 µM
Cc1cccc2c1CC(C1OC(=O)c3ccccc31)C2=O (configuration not stated)	inactive: > 100 µM

SMILES	GI50
CC(O)(c1ccccc1)c1nccc2ccccc12 (configuration not stated)	inactive: 68.9 µM
CC1(c2ccccc2)CC12C(=O)NC(=O)NC2=O (configuration not stated)	inactive: > 100 µM
CCN(CC)C1=Nc2ccccc2-n2ccnc2C1	inactive: > 100 µM
CC1(C)OC(=C(C#N)C#N)C(C#N)=C1/C=C/c1ccncc1	inactive: 4.42 µM
C[C@H](CCc1nc(C#N)c(N)o1)[C@H]1CC[C@H]2[C@@H]3[C@@H](O)CC4C[C@@H](O)CC[C@]4(C)[C@H]3C[C@@H](O)[C@]12C (some centres not stated)	inactive: 33.6 µM
CN(C)CCNC(=O)c1cccc2c1nc(-c1cccnc1)c1ccccc12	inactive: 5.33 µM
CC(=O)O[C@H]1CC[C@@H](OC(C)=O)[C@H]2[C@H](O)[C@H](O)[C@@H]1n1c(=O)n(-c3ccccc3)c(=O)n12	inactive: > 100 µM
Cc1ccc(S(=O)(=O)OC2C(C3COC(C)(C)O3)OC3OC(C)(C)OC32)cc1 (configuration not stated)	inactive: > 100 µM
COC(=O)c1ccccc1CC1Cc2ccc3c(c2C1=O)CCC3 (configuration not stated)	inactive: > 100 µM
O=c1cc(-c2ccccc2)[nH]c2ccc(N3CCCCC3)cc12	active: 0.0378 µM
O=C(O)Cc1cc(F)ccc1C(=O)O	inactive: 49.3 µM
C1CCC(OCc2nnn3c2CCC3)OC1 (configuration not stated)	inactive: > 100 µM
CN(C)CCNC1=Nc2ccccc2C(=S)N2CSCC12 (configuration not stated)	inactive: > 100 µM
Cc1nc(-n2nc(-c3ccccc3)cc2-c2ccccc2)sc1C(/C=C/c1ccc([N+](=O)[O-])cc1)=N/NC(=O)c1ccncc1	inactive: 29.8 µM
CCN(CC)CC(=N)N(CC)c1ccccc1	inactive: > 100 µM
CC(C)OC(=O)NNc1cccc(Cl)c1	inactive: > 100 µM
O=C(O)CCC(N/C=C1/N=C(c2ccccc2)OC1=O)C(=O)O (configuration not stated)	inactive: > 100 µM
CCOC(=O)c1c(N2CCCC2)[nH]c(=O)c(C(c2ccco2)c2c(O)c(C(=O)OCC)c(N3CCCC3)[nH]c2=O)c1O	inactive: > 100 µM
COc1ccc(C2NC3=C(CCCC3)C3(C#N)C(=O)N=C(N)C23C#N)cc1 (configuration not stated)	inactive: > 100 µM
CCCCCCCCCCCC(=O)C1=C(O)CCC(O)C1=O (configuration not stated)	inactive: 24.3 µM
Cc1cc(Cl)ccc1NC1=NC(=O)C(CC(=O)Nc2cccc(Cl)c2)S1 (configuration not stated)	inactive: 75.9 µM
O=[S@@]1Nc2ccc(Br)cc2S1	inactive: > 100 µM

SMILES	GI50
O=C1CCCC(=O)N1CCc1c[nH]c2ccccc12	inactive: > 100 µM
O=C(NC(Cc1ccc(I)cc1)C(=O)O)c1ccc(I)cc1 (configuration not stated)	inactive: > 100 µM
C/C(=N/NC(=S)N1CCCCCC1)c1ccccc1O	inactive: 9.68 µM
COC1C(=O)CCC2(CO2)C1(O)C1(C)OC1CC=C(C)C (configuration not stated)	inactive: 27.7 µM
N#C[C@@]12CCCC(=O)[C@@H]1[C@H]1CCC[C@H]12	inactive: 17.1 µM
O=C(O)CSc1nnc(CCCCCCCCc2nnc(SCC(=O)O)o2)o1	inactive: > 100 µM
Cc1cc(O)c(C=O)c(C)c1CCC1(C)C=Cc2cc(O)ccc2O1 (configuration not stated)	inactive: 27.1 µM
CC(=O)Oc1ccc2cc(Oc3ccc(Cl)c(Cl)c3)c(=O)oc2c1	inactive: 43.2 µM
CNC(=O)NCCCCC(NC(C)=O)C(=O)NCc1ccccc1 (configuration not stated)	inactive: > 100 µM
[O-][S+]1Nc2c(Cl)cc(Cl)c3c(Cl)cc(Cl)c(c23)N1	inactive: 48.3 µM
CC(=O)NC1C(OCc2ccccc2)OC(CO)C(O)C1OCC(=O)N1CCCC1C(=O)N[C@@H](CCC(=O)NCCNCCNc1c2ccccc2nc2cccc([N+](=O)[O-])c12)C(N)=O (some centres not stated)	inactive: 7.89 µM
COc1ccc2c(ccc3c(C(=O)NCCN(C)CCNC(=O)c4cn(C)c5c4ccc4cc(OC)ccc45)cn(C)c32)c1	inactive: 2.32 µM
O=[N+]([O-])c1ccc(-n2nnc(C3=NCCCN3)c2-c2ccc(Cl)cc2)cc1	inactive: > 100 µM
O=C1NC(=O)/C(=N\c2cccc3c(=O)[nH][nH]c(=O)c23)C(c2nc3ccccc3s2)C1=O (configuration not stated)	inactive: > 100 µM
CC(=O)c1ccc(NC(=O)C(=O)C(C(=O)/C=C/c2ccccc2)C2OC(=O)c3ccccc32)cc1 (configuration not stated)	inactive: > 100 µM
CC(C)=CCN1c2ccc(Cl)cc2NC(=O)CC1C (configuration not stated)	inactive: 36.4 µM
C/C=C/C=N/N(C(=O)c1cc([N+](=O)[O-])cc([N+](=O)[O-])c1)C1=NN=C(c2ccccc2)C(c2ccccc2)N1 (configuration not stated)	inactive: > 100 µM
COCOc1c(C(O[Si](C)(C)C(C)(C)C)c2cnc(Sc3ccccc3)n2C)ccc(OC)c1OC (configuration not stated)	inactive: 2.85 µM
CC(=O)NC1=C(NCc2ccc(Cl)cc2)C(=O)c2ccccc2C1=O	inactive: > 50 µM
c1ccc2c(Nc3ncco3)cccc2c1	inactive: > 10 µM
C=C1CCC[C@@H](C)C(O)[C@@H]2OC(=O)C(=C)[C@@H]2C[C@@H](OC(C)=O)[C@@]2(C)CC[C@@H]1O2 (some centres not stated)	inactive: 8.07 µM
CC1(C)CC[C@]2(C(=O)O)CC[C@]3(C)C(=CC[C@@H]4[C@@]5(C)CC[C@H](OC6OC(CO)C(O)C(O)C6OC6OC(CO)C(O)C(O)C6O)C(C)(C)[C@@H]5CC[C@]43C)[C@@H]2C1 (some centres not stated)	inactive: 14.8 µM

SMILES	GI50
COc1ccc2c(c1O)C(=O)C(CCC(=O)O)CC2 (configuration not stated)	inactive: > 100 µM
Cc1ccc(-c2cc(-c3ccco3)nc(N)n2)o1	inactive: > 100 µM
CC(=O)OCC1OC(n2c(-c3ccc(Cl)cc3)cc(-c3ccccc3)c(C#N)c2=S)C(OC(C)=O)C(OC(C)=O)C1OC(C)=O (configuration not stated)	inactive: 16.8 µM
O=C1C(Cl)=C(N2CCC[C@H]2CO)C(=O)c2c(O)ccc(O)c21	inactive: > 10 µM
CC1(C)OCN(c2ccc(Cl)cc2)Cn2c1nc1ccccc12	inactive: > 100 µM
Nc1ccn(C2OC(C(OC3OC(CO)C(O)C(N)C3O)C(O)C(O)C(O)C(O)CO)C(N)C(O)C2O)c(=O)n1 (configuration not stated)	inactive: 48.2 µM
O=C1C2C(C(=O)N1OS(=O)(=O)c1ccccc1)N(Cc1ccccc1)C(=O)N2Cc1ccccc1 (configuration not stated)	inactive: > 100 µM
COC(=O)NC1(NC(=O)OC)NC(=O)c2ccccc2N1	inactive: > 100 µM
COC(=O)C1=C(O)C(C(=O)OC)[C@]2(O)[C@H](C(=O)OC)[C@H]1C[C@@H](c1ccc(O)cc1)[C@H]2C(=O)OC (some centres not stated)	inactive: 34.8 µM
Cc1c2cccc(Sc3ccccc3)c2c2c3c(cccc13)[S+](c1ccccc1)C2 (configuration not stated)	inactive: 3.91 µM
COc1ccc2c(O)c1-c1c(OC)ccc(c1O)SSc1ccc(OC)c(c1O)-c1c(OC)ccc(c1O)SS2	inactive: > 100 µM
COc1cccc(C2SCC(=O)N2c2ccc(-n3c(-c4ccccc4)nc4ccccc4c3=O)cc2)c1OC (configuration not stated)	inactive: > 100 µM
COc1cc([C@@H]2c3cc4c(cc3[C@@H](NCc3cccc(F)c3)C3COC(=O)[C@@H]32)OCO4)cc(OC)c1O (some centres not stated)	inactive: 18.6 µM
Cn1cc(NC(=O)c2cc(NC(=O)CCCCCC(=O)Nc3cc(C(=O)Nc4cc(C(=O)NCCC(=N)N)n(C)c4)n(C)c3)cn2C)cc1C(=O)NCCC(=N)N	inactive: > 100 µM
CC12CCC(=O)[C@@]1(C)CCCC2O (some centres not stated)	inactive: > 100 µM
CCC1(O)C(=O)OCc2c1cc1n(c2=O)Cc2cc3ccc(CO)cc3nc2-1 (configuration not stated)	inactive: 7.18 µM
[O-][n+]1ccc(NO)c2ccccc21	inactive: 1.16 µM
O=C1Nc2ccc(S(=O)(=O)O)cc2/C1=N/Nc1ccccc1[N+](=O)[O-]	inactive: > 100 µM
CC(Oc1ccc(Oc2cnc3ccc(Cl)cc3n2)cc1)C(=O)O (configuration not stated)	inactive: > 94.4 µM
CN(C)Cc1cc(C(=O)/C=C/c2ccc([N+](=O)[O-])cc2)cc(CN(C)C)c1O	inactive: 4.24 µM
Oc1nc2ccccc2c2oc3ccccc3c12	inactive: > 100 µM
